Substitutions are numbered along the chain they refer to. Names and notes keep the numbering of the source. Results are given in words; binding and its absence hold for the method and conditions named. For some assays here: Binding seen in cells or lysates may run through a third protein. Some entries that bind do so weakly or less than the wild type. Sequences can lack the tags named with a protein.
How the values were obtained:
[1] = target: T1, Orc4 (yeast two-hybrid fusion) (budding yeast) (UniProt P54791); assay: two-hybrid; bait and prey in pGBDU-C1 or pGAD-C1, reporter strain yGV864; spot assay on -Ura-Leu-His plates, 2–4 d
T1 sequence: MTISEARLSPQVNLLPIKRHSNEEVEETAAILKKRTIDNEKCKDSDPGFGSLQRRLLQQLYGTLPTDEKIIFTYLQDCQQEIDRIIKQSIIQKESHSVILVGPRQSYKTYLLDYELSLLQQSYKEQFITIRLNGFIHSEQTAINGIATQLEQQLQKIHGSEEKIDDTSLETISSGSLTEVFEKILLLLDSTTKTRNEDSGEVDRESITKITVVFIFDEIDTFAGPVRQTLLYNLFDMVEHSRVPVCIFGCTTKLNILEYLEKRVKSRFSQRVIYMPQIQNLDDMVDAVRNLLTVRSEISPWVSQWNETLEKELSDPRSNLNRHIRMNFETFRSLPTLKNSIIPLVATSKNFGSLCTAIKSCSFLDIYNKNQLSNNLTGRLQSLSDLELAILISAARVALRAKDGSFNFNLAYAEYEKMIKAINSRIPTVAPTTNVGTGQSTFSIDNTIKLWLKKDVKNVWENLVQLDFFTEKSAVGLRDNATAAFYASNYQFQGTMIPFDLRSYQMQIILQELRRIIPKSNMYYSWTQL

[2] = target: T2, Orc3 (yeast two-hybrid fusion) (budding yeast) (UniProt P54790); assay: as above
T2 sequence: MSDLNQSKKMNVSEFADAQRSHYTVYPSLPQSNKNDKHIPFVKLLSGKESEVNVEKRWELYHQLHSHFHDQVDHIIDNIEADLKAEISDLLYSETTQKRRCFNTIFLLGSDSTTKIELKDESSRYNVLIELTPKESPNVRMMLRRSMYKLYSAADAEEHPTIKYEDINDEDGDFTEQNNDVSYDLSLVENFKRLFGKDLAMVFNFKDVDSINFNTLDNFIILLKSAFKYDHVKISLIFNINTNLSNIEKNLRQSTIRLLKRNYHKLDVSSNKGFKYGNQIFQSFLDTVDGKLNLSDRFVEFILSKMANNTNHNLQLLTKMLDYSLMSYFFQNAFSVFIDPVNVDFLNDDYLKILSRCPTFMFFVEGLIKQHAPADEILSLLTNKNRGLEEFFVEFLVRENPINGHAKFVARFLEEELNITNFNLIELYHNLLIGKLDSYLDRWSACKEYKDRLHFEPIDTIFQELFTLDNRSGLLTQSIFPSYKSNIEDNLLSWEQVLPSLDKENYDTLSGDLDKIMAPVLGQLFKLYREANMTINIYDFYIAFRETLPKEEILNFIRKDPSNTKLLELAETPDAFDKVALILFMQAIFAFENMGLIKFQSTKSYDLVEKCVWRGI

[3] = target: T3, Orc1 (yeast two-hybrid fusion) (budding yeast) (UniProt P54784); assay: as above
T3 sequence: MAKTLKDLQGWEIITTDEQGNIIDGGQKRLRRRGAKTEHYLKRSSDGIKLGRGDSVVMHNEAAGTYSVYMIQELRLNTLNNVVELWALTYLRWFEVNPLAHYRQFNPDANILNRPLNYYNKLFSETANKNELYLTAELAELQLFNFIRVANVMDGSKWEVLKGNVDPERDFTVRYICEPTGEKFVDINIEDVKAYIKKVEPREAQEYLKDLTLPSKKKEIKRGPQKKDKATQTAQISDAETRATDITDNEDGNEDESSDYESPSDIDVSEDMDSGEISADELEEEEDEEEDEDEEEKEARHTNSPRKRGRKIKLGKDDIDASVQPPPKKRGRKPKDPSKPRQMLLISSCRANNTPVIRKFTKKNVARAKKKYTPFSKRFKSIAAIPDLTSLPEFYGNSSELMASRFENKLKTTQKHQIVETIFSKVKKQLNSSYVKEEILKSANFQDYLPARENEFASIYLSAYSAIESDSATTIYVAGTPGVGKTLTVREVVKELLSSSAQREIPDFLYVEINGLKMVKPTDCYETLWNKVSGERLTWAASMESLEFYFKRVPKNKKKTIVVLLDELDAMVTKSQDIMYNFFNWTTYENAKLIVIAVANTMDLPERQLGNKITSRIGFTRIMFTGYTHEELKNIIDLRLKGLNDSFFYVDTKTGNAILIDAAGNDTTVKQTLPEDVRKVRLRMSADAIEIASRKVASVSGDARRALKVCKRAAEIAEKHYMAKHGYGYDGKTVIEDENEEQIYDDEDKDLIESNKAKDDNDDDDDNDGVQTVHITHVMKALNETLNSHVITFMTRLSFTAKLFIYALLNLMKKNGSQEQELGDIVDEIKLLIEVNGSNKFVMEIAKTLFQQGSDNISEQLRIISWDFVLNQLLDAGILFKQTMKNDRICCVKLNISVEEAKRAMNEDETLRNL

[4] = target: T4, Orc2 (precipitated with α-Orc2) (budding yeast (endogenous in SK1 meiotic cells)) (UniProt P32833); assay: co-IP; α-Orc2 IP (isotype IgG IP as negative control) from precleared lysates of meiotic cells; Dynabeads protein G
T4 sequence: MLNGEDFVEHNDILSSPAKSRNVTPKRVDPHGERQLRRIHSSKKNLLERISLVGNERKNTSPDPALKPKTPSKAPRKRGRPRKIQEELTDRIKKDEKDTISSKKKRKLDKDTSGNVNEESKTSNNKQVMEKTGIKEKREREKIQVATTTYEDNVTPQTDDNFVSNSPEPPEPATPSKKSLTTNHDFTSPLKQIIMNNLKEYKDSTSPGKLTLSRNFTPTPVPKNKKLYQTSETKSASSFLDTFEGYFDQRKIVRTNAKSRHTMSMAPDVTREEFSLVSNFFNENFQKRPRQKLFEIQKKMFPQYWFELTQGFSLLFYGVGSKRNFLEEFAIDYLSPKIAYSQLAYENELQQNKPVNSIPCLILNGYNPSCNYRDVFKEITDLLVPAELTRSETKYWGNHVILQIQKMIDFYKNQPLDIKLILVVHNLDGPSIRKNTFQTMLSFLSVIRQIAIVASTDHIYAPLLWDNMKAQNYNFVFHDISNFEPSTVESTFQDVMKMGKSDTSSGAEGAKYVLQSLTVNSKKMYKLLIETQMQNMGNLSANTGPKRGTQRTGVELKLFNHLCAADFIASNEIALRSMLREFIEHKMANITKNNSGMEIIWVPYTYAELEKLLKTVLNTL

[5] = target: His–MBP–Pch2-2-144 (budding yeast) (UniProt P38126); assay: SEC; single purified proteins: His–MBP–Pch2 (2 μM), His–MBP–Pch2-243-564 (2 μM), His–MBP–Pch2-2-144 (6 μM; Superdex 200 5/150 GL); 30 mM HEPES pH 7.5, 150 mM NaCl, 3% glycerol, 2 mM TCEP, 1 mM MgCl2; both purified

B1: Pch2, full-length (yeast two-hybrid fusion) (protein, UniProt P38126 1-564)
chain: MSYIVDLQVRGSSLRVIKCMFREDEQISSLHSGSDSKQNSNKKLGEFLNLLKAVVKRKLESFPKDRLKTSIITGQELMREGQGSIEIKDPPTEAQQHLIRSLAKVLLHQFSSINGKVNTVNEGQDNLFLSLFVKKISIEQQSTSHVSIKLNFHEKINLGQHIDSILDSEETNESDTYHMGSVDEFIIYPFCCLEEQDELKNGSILSTEFDKIDLELDEDDGFEGETLNNCINSVGNFDIPLSKQTLNLVNISYLPGTTFEGQWESLYFGNNIKERLYSYATISLKIARFKQTGDSNQEDITTLITNNKLLLVHGPPGTGKTTLCKALCQKLSVRREFSDGSDTIDTNYKGIIIELSCARIFSKWFGESSKNISIVFKDIEELLKVNEGRGIFICLLIDEVEAIASSRTNLSSRNESTDGIRVVNTLLTQLDRLKKYHNFLALATSNLLDSLDDAFVDRADGVFYVGNPTAEGILHILKVCIEEMITSGIILFHARSTGVKFFNKYQDILRKIAIKCSTVDISGRTIRKLPLMCLSEYFRTFPVDDDEFVLALAMSARKLSAARK
[1]
  binding: no binding
[2]
  binding: no binding
[3]
  binding: binds

B2: 3xFlag-tagged Pch2–E399Q (protein, UniProt P38126 1-564)
chain: B1 chain with E399Q
[4]
  binding: binds

B3: His–MBP–Pch2-2-144 (domain or fragment, budding yeast, UniProt P38126 2-144, looked up)
chain: SYIVDLQVRGSSLRVIKCMFREDEQISSLHSGSDSKQNSNKKLGEFLNLLKAVVKRKLESFPKDRLKTSIITGQELMREGQGSIEIKDPPTEAQQHLIRSLAKVLLHQFSSINGKVNTVNEGQDNLFLSLFVKKISIEQQSTS
notes: Pch2, budding yeast, part of the NH2-terminal domain; Monomer by SEC; also called minimal NH2-terminal fragment of Pch2; source: Tnao38 insect cells (baculovirus), purified (TALON, amylose, SEC); not shown: His, N-terminal, kept; MBP, N-terminal, kept
[5]
  binding: no binding (tested: 6 μM)

Reference: publication PMC7442955, “Biochemical and functional characterization of a meiosis-specific Pch2/ORC AAA+ assembly” (Life Science Alliance, 2020)
